Reference: PubChem BioAssay AID463173 (ICCB-Longwood Screening Facility, Harvard Medical School, 2010)
Among all 52,000 compounds or so, about 4,300 (8.3%) were called active. Rule as the data show it: active = survival mostly below about 52% (no sharp cut-off); inactive = mostly above about 56%. This is one part of the list.

The compounds below were run on DeltatarO mutant (assay: S. aureus survival, RN4220 and DeltatarO strains – OD600, teichoic acid synthesis inhibitors, primary screen (AID 463173)). Details: S. aureus RN4220 wild type/DeltatarO growth, OD600, 18 h, active compounds read low, screened at 18.75 µg/mL (by protocol).

SMILES	survival
Cc1cc(C)c(NS(=O)(=O)c2ccc3c(c2)CC(C)N3C(=O)C2CCC2)c(C)c1 (configuration not stated)	inactive: 74%
CCOc1ccc(C2CC(=O)NC(NC(=O)c3cccc(Cl)c3)=N2)cc1 (configuration not stated)	inactive: 92%
C=CCn1c(SCC(O)Cn2c3ccccc3c3ccccc32)nnc1-c1ccco1 (configuration not stated)	inactive: 49%
Cc1ccc(C)c(Cn2cnc3c(cnn3-c3ccc(F)cc3)c2=O)c1	inactive: 99%
CCN(Cc1ccccc1)S(=O)(=O)c1ccc2c(c1)CCCN2C(C)=O	inactive: 93%
CCc1ccc(NC(=O)N2c3ccccc3Sc3ccccc32)cc1	active: -2%
Cc1ccc(Cn2c(CCCNC(=O)c3ccco3)nc3ccccc32)cc1	inactive: 77%
Cc1nc2c(-c3ccccc3)c(C)nn2c(C)c1CCC(=O)NCc1ccc(Cl)cc1	inactive: 104%
COc1ccc(CCNS(=O)(=O)c2ccc(N3CCCCS3(=O)=O)cc2)cc1OC	inactive: 69%
CCOC(=O)c1nnn(CC(=O)Nc2cc(C)cc(C)c2)c1C(=O)OCC	inactive: 68%
COc1ccccc1CNC(=O)c1cc2cccc3c2n1CC(C)S3 (configuration not stated)	inactive: 102%
CS(=O)(=O)N(CC(=O)NCCSCc1ccccc1)c1cc(C(F)(F)F)ccc1Cl	inactive: 115%
O=C(Cn1cnc2onc(-c3ccc(F)cc3)c2c1=O)Nc1cccc(C(F)(F)F)c1	inactive: 102%
COc1ccc(NC(=O)CC2C(=O)N(c3ccccc3)C(=O)N2C2CCCCC2)cc1 (configuration not stated)	inactive: 72%
CCOC(=O)c1ccc(NC(=O)c2nc(SC(C)C)ncc2Cl)cc1	inactive: 107%
CC(C)CN(CCNC(=O)c1cn(C)c2ccc(S(=O)(=O)N3CCOCC3)cc2c1=O)CC(C)C	inactive: 89%
C=CCNc1nc(NCCN2CCOCC2)nc(OC)n1	inactive: 101%
Cc1ccccc1NC(=O)Cn1c(=O)n(Cc2ccc3c(c2)OCO3)c(=O)c2ccc(C(=O)NC3CCCCC3)cc21	inactive: 96%
Cc1ccc2cccc(NC(=O)c3ccc(-c4cccc(Cl)c4Cl)o3)c2n1	inactive: 55%

SMILES	survival
CC(C)N(C(=O)CSc1nnc(-c2ccco2)n1C)C(C)C	inactive: 108%
CSCCC(NS(=O)(=O)c1ccc2c(c1)oc(=O)n2C)C(=O)NCc1ccccc1 (configuration not stated)	inactive: 105%
Cc1cc(-c2ccccc2)n2nc(-c3cccc(Br)c3)cc2n1	active: 14%
CC1CCN(C(=O)CN2c3ccc(C(C)C)cc3-c3ccccc3S2(=O)=O)CC1	inactive: 87%
Cn1nc(C(=O)NCc2ccc(F)cc2)c2c1-c1ccccc1SC2	inactive: 68%
COc1nc(N(C)C)nc(N(C#N)CN2C(=O)c3ccccc3S2(=O)=O)n1	inactive: 112%
CCC(=O)N1CCN(C(=O)CC)C1c1ccccc1	inactive: 93%
CCOC(=O)c1cc(C)n(CC2CCC(C(=O)Nc3ccc(C)cc3)CC2)c1C (configuration not stated)	inactive: 98%
CCc1ccc(NC(=O)c2ccc3nc(C(C)C)oc3c2)cc1	inactive: 93%
Cc1ccccc1NC(=O)C1C(c2cccs2)C(C#N)=C(SCC(N)=O)NC1(C)O (configuration not stated)	inactive: 84%
CSc1ccc(-c2nc3c(C)cccn3c2Nc2ccc3c(c2)OCCO3)cc1	inactive: 83%
COc1cc(OC)c(NC(=O)Cn2c(=O)cc(C)c3c(C)nn(-c4ccc(C)cc4)c32)cc1Cl	inactive: 129%
O=C(NCc1ccc(F)cc1)C1CCCCN1S(=O)(=O)c1ccc(F)cc1 (configuration not stated)	active: 32%
CSc1ccc(C(=O)Nc2ccc(-c3nc4ccccc4s3)c(O)c2)cc1	active: 32%
CCC(=O)N1CCc2cc(S(=O)(=O)CCC(=O)N3CCN(c4cccc(Cl)c4)CC3)ccc21	inactive: 62%
Cc1cc(C)cc(NC(=O)c2oc3ccc4c(c3c2C)C(=O)CC(C)(C)O4)c1	inactive: 89%
COc1ccc2c(c1)c1c(c(=O)n(Cc3ccccc3)c(=O)n1CC(=O)NCc1ccc(C)cc1)n2C	inactive: 84%
Cc1ccc(C)c(N2CCN(C(=O)c3ccc(Nc4nc5ccccc5n5nnnc45)cc3)CC2)c1	inactive: 82%
COc1ccc(N2CCN(C(=O)CCC(=O)NNc3nc4ccccc4c4nc(C)nn34)CC2)cc1	inactive: 97%

SMILES	survival
O=C(NCCc1csc(-c2cccc(F)c2)n1)c1ccccc1C(F)(F)F	inactive: 94%
CCN(C(=O)CN1C(=O)COc2ccc(S(=O)(=O)N3CCOCC3)cc21)c1cccc(C)c1	inactive: 96%
O=C(c1cn(-c2ccccc2)nc1-c1cccnc1)N1CCCCC1	inactive: 84%
Cn1c(SCC(N)=O)nnc1-c1ccc(S(=O)(=O)N2CCCC2)cc1	inactive: 79%
CCc1nn(-c2ccccc2)c2nc(-c3ccc(O)cc3)c3cc(OC)c(OC)cc3c12	inactive: 74%
CCCc1cnc2c(c1SCC(=O)Nc1c(C)cc(C)cc1C)c(=O)n(C)c(=O)n2C	inactive: 94%
COC(=O)c1ccc(NC(=O)Cn2c(-c3nonc3N)nc3ccccc32)cc1	inactive: 134%
Cc1cccc(-c2nc(CN3CCCC(C(=O)NCc4ccc(Cl)cc4)C3)c(C)o2)c1 (configuration not stated)	active: 18%
Cc1nn(CC(=O)N2CCC(C)CC2)c(=O)c2cc3occc3n12	inactive: 97%
O=C(NCC1CCCO1)c1ccc(S(=O)(=O)N2CCCCC2)cc1 (configuration not stated)	inactive: 66%
c1cncc(-c2noc(C3CCCCC3)n2)c1	inactive: 61%
CCOC(=O)N1CCC2(CC1)OC(=O)C(C)=C2C(=O)NCc1ccc(C)cc1	inactive: 70%
CCNC(=O)c1ccc(CSc2nc3cccnc3n2Cc2ccc(OC)cc2)cc1	active: 0%
Clc1ccccc1CNC12CN3CN(CN(C3)C1)C2	inactive: 72%
CCC1CCc2nc3sc(C(=O)Nc4ccc(C)cc4C)c(N)c3cc2C1 (configuration not stated)	inactive: 62%
COC(=O)Cn1ccc2cc(S(=O)(=O)N3CCCCCC3)ccc21	inactive: 77%
COc1ccc(-c2noc(N3CCC(C(=O)Nc4ccc(OC)c(OC)c4)CC3)n2)cc1	inactive: 90%
O=c1c2cc3c(cc2n(Cc2ccccc2)c(=O)n1Cc1nc(-c2ccccc2)no1)OCO3	inactive: 87%
COc1ccc(NC(=O)N2CCN(S(=O)(=O)c3ccc4c(ccn4C)c3)CC2)cc1OC	inactive: 131%
